{"source": "the supplement of paper PMC11417369", "note": "± gives the standard deviation of the averaged measurements. Some of the results follow."}
{"tested_on": "PfAP2-LT AP2 domain (GST-tagged)", "assay": "gcPBM binding intensity (ln(normalized median fluorescence intensity)); higher = stronger DNA binding", "method_in_brief": "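Binding intensity is defined as the maximum Masliner-normalised natural-log median intensity across replicate spots for either probe orientation. It was measured on an Agilent 4 × 180k array of primer-extended double-stranded 36-bp intergenic genomic probes and negative controls, to which GST-tagged P. falciparum DNA-binding domains made in E. coli were applied for 1 h in 1× PBS with 1% milk, 0.2 mg/ml BSA, 0.5% salmon testes DNA and 0.03% Triton X-100. Detection was by Alexa488 anti-GST antibody and scanning at 488 nm.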"}
{"sequence": "TTATTTACATCAAGTACATGCAGTAAAAAAAAAAAA [TGCATGCA_site351]", "gcPBM binding intensity (ln)": "8.62 ± 0.43"}
{"sequence": "ATATAATATATGTATACACACATATTATATAATATT [CACACA_site3699]", "gcPBM binding intensity (ln)": "8.97 ± 0.33"}
{"sequence": "ATGAACAGTTCATGTTGTACAATCTCCATTTTTTAC [XGTACX_site3933]", "gcPBM binding intensity (ln)": "8.85 ± 0.41"}
{"sequence": "TATACACATTTTTATACACACTTGTTTTATAAAACG [CACACA_site6480]", "gcPBM binding intensity (ln)": "8.88 ± 0.4"}
{"sequence": "ATAATATGAAATATAACACACATATATAAAAACATT [CACACA_site866]", "gcPBM binding intensity (ln)": "9.11 ± 0.33"}
{"sequence": "TATTTTTTTTTTGGGTGTACCTTTTATATATATTGT [XGTACX_site5036]", "gcPBM binding intensity (ln)": "8.84 ± 0.52"}
{"sequence": "TTTTTTTTTTTTTTTTGTACTTAAAAATTTATATAA [XGTACX_site7718]", "gcPBM binding intensity (ln)": "8.2 ± 0.45"}
{"sequence": "TATATATATATATATGCATGTACATATATTTGTTAT [TGCATGCA_site379]", "gcPBM binding intensity (ln)": "9.99 ± 0.4"}
{"sequence": "CATTTATATATATACACACACACAAAAAAAAAAAAA [CACACA_site2645]", "gcPBM binding intensity (ln)": "9.57 ± 0.49"}
{"sequence": "ATTTAACTAAAGAAGGCACACGTGTTTAAAAAAAAA [CACACA_site5241]", "gcPBM binding intensity (ln)": "8.7 ± 0.48"}
{"sequence": "GACGTTATGATACACATACACACAGGGATAAAAAAT [CACACA_site2882]", "gcPBM binding intensity (ln)": "9.3 ± 0.4"}
{"sequence": "AATATTATATTTTATTGTACTAATAAAAATATATGC [XGTACX_site5435]", "gcPBM binding intensity (ln)": "8.61 ± 0.4"}
{"sequence": "GAAACTTCAAGAAATGCACACAATAAAATAAATAAA [CACACA_site1549]", "gcPBM binding intensity (ln)": "9.06 ± 0.35"}
{"sequence": "AGCATTAAAAATGGAATGGAATTAAGCTATATATTA [CACACA_negctrl_site1571]", "gcPBM binding intensity (ln)": "8.86 ± 0.52"}
{"sequence": "AGTATATATTATATATATATATATATATTATATATG [TGCATGCA_negctrl_site99]", "gcPBM binding intensity (ln)": "8.86 ± 0.34"}
{"sequence": "ATAGAATATTATATTACACACAGAATAATAAAAAAT [CACACA_site86]", "gcPBM binding intensity (ln)": "9.13 ± 0.4"}
{"sequence": "ACATCTCTTATATATTCACACACATATATATAATTA [CACACA_site8424]", "gcPBM binding intensity (ln)": "9.21 ± 0.32"}
{"sequence": "TTTTTTTTTTAATTCGCACACTGTCTTCATGCAATT [CACACA_site4882]", "gcPBM binding intensity (ln)": "9.13 ± 0.52"}
{"sequence": "TTAAAAAATTTTTAAGCACACACATAGATAATATAT [CACACA_site8440]", "gcPBM binding intensity (ln)": "9.07 ± 0.44"}
{"sequence": "GCACATCTATATGAAACACACATGGAAACATCTCTT [CACACA_site7793]", "gcPBM binding intensity (ln)": "9.1 ± 0.38"}
{"sequence": "TGTATATATTATAAAAGTACATAATATTCTTAGATA [XGTACX_site5623]", "gcPBM binding intensity (ln)": "8.51 ± 0.48"}
{"sequence": "TTATCTTACATAAATTATAACAATAATATGTGTATA [XGTACX_negctrl_site379]", "gcPBM binding intensity (ln)": "8.47 ± 0.43"}
{"sequence": "CATTTCGAAAAAAAATGTACTTATTATATTTATATA [XGTACX_site6752]", "gcPBM binding intensity (ln)": "8.39 ± 0.42"}
{"sequence": "TTTTGTCTTATATGTTGTACAACGTAAACAAAAAAA [XGTACX_site4412]", "gcPBM binding intensity (ln)": "8.4 ± 0.46"}
{"sequence": "AAAAGAATATATAATTGTACTTAAAATATAATTAAG [XGTACX_site4484]", "gcPBM binding intensity (ln)": "8.52 ± 0.49"}
{"sequence": "TTTCGATTAAAAATTGTACAATATAAGGAGCACACA [GTGCAC_negctrl_site476]", "gcPBM binding intensity (ln)": "8.69 ± 0.44"}
{"sequence": "TAAAAAAAAAAATGAACATGCAACAATTGTGATGAA [TGCATGCA_site332]", "gcPBM binding intensity (ln)": "8.86 ± 0.49"}
{"sequence": "CTTTTTTTGACCTTAGTGCAAATAACTATATATTAT", "gcPBM binding intensity (ln)": "8.75 ± 0.44"}
{"sequence": "AACCACAGACATATAACACACATATACAATATATAT [CACACA_site5142]", "gcPBM binding intensity (ln)": "9.34 ± 0.43"}
{"sequence": "ATGAAAATTATAAAGTGTACATATAGAAACATTTAC [XGTACX_site8047]", "gcPBM binding intensity (ln)": "8.78 ± 0.49"}
{"sequence": "ACTGTAACAATCATGGGTACAAATAAAATAATATCT [XGTACX_site99]", "gcPBM binding intensity (ln)": "8.94 ± 0.52"}
{"sequence": "ATGGGACATATATATACACACATATATATATATATA [CACACA_site1202]", "gcPBM binding intensity (ln)": "9.96 ± 0.24"}
{"sequence": "AAAAAAATTAAACATGAAGAATAAGGAACAAAAAAA [CACACA_negctrl_site1607]", "gcPBM binding intensity (ln)": "8.78 ± 0.55"}
{"sequence": "TTTAATCATATGTTATATAATAAGCCCCCCCCCCAA [CACACA_negctrl_site486]", "gcPBM binding intensity (ln)": "10.2 ± 0.17"}
{"sequence": "ATTTAAGTAGTACATACACACACATATACAAAAAGA [CACACA_site9317]", "gcPBM binding intensity (ln)": "9.46 ± 0.32"}
{"sequence": "TTACTAAAAATTATTAATAAATAATAATTATAAATT [GTGCAC_negctrl_site310]", "gcPBM binding intensity (ln)": "8.21 ± 0.5"}
{"sequence": "ATTTTTAAGCATATCAAAAAAAAAAAAAAAATTAAT [CACACA_negctrl_site980]", "gcPBM binding intensity (ln)": "8.27 ± 0.48"}
{"sequence": "TAAAAAGGAAAACACACACACACATATATATATATA [CACACA_site3588]", "gcPBM binding intensity (ln)": "10.2 ± 0.26"}
{"sequence": "TTTCCAATTAGTTTTGCATGTTGAAAAAATGTTGGA [TGCATGCA_site1035]", "gcPBM binding intensity (ln)": "8.29 ± 0.25"}
{"sequence": "TTATTATTAAGACACACACACAAAAAAAAAAAAAAA [CACACA_site6805]", "gcPBM binding intensity (ln)": "9.26 ± 0.46"}
{"sequence": "TATTTTAACTTCTCATGTACATATATTATGTCTATA [XGTACX_site249]", "gcPBM binding intensity (ln)": "9.02 ± 0.47"}
{"sequence": "TATCATAAACTTCCTTACTATACTTTTCTTATTCAT [CACACA_negctrl_site1341]", "gcPBM binding intensity (ln)": "8.71 ± 0.49"}
{"sequence": "CTTTGTAGTATATTAACACACAACTATTTATAATAT [CACACA_site3934]", "gcPBM binding intensity (ln)": "8.85 ± 0.37"}
